Experimental findings from PubChem BioAssay AID485344 (National Center for Advancing Translational Sciences (NCATS), 2010) are described below.

As a reminder, the inhibition is the relative decrease from the control value, in per cent.

The whole screen tested about 340,000 compounds, of which about 6,900 (2%) were called active. No stated cut-off is given here; in the data, active means inhibition above about 30%; inactive means below that, where a call was filed. The list shows a part of the results, in another mix than the full data. Entries without a call were filed so in the source.

Sequence of UniProt P14416 (P14416 whole entry, looked up): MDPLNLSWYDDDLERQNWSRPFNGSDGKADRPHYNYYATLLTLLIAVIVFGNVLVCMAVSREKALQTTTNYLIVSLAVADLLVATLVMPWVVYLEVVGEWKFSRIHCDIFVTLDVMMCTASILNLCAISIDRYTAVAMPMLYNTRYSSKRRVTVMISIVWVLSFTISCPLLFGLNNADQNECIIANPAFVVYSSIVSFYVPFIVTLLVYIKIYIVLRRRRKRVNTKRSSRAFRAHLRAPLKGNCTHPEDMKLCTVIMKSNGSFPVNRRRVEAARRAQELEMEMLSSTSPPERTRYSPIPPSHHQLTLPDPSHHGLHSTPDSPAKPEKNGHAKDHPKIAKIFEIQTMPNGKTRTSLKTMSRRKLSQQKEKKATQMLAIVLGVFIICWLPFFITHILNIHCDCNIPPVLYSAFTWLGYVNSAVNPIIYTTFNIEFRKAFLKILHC

The target of the test is D(2) dopamine receptor (Homo sapiens) (UniProt P14416). The test is described as follows: HTS Assay for Allosteric Antagonists of the Human D2 Dopamine Receptor: Primary Screen for Antagonists. Further: 0% is about no effect. Conditions: HEK293 TREx D2 cells, calcium flux, dopamine EC80; at 10 µM; stronger effect = higher value. In a few lines:
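Cells plated overnight at 30 C with tetracycline; no-wash calcium dye, 30–90 min RT; 10 s baseline; compound pinned; 180 s read; EC80 dopamine added; another 180 s read.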
For the compound `O=C(CC1N=C2c3ccccc3N=C(SCc3ccc(F)cc3)N2C1=O)NCc1ccc2c(c1)OCO2` (configuration not stated), the inhibition was -25.8%.

Consider `Cc1ccc(NC(=O)CSc2nnc3ccc4ccccc4n23)cc1`, for which the inhibition was -17.9%.

On to `CCc1ccc(NC(=O)c2ccc(-c3ccccc3)s2)cc1`, for which the inhibition came out at 2.41%.

`O=C(NCCN1CCN(c2cccc(Cl)c2)CC1)Nc1ccccc1`: the inhibition is 19.7%.

`COc1cc2c(C(=O)Nc3cc(OC)c(OC)c(OC)c3)cn(C)c(=O)c2cc1OC`: the inhibition came to 0.376%.

As to `CC(C)c1ccc(S(=O)(=O)c2nnn3c2nc(N2CCCC2)c2sccc23)cc1`, the inhibition is -4.17%.

Take `Cc1cccc(Cn2c(=O)n3nc(-c4ccccc4)nc3c3ccccc32)c1`: the inhibition was -5.82%.

With `CCCC(=O)Nc1nnc(S(=O)(=O)N(C)Cc2ccc(Cl)cc2)s1`, the inhibition is -10.7%.

As to `COc1ccc(C2c3cc(OC)c(OC)cc3CC(=O)N2c2ccc(C)cc2)cc1` (configuration not stated), the inhibition is 10.2%.

`Cn1c(=O)[nH]c2cc(-c3noc(-c4ccc(Br)cc4)n3)ccc21`: the inhibition is -0.332%.

For `Cc1cccc(-c2nn3c(=O)cc(CN4CCN(C(=O)/C=C/c5ccccc5)CC4)nc3s2)c1`, the inhibition is 5.59%.

As to `O=C1Nc2ccccc2Oc2cc(Oc3ccccc3)ccc21`, the inhibition came out at 1.43%.

Turning to `CCOC(=O)C1(c2csc(N)n2)COC(=O)C1` (configuration not stated), the inhibition is active: 43.7%.

As for `Cc1ccc(C(=O)NCC(C)(C)O)cc1`, the inhibition is active: 37.5%.

With `COc1ccc(NC(=O)c2sc3nc4c(cc3c2N)CN(Cc2ccccc2)CC4)c(OC)c1`, the inhibition is 14%.

Regarding `Cc1ccc(C)c(CN2C(=O)c3ccccc3S(=O)(=O)c3ccc(C(=O)OCC4CCCO4)cc32)c1` (configuration not stated), the inhibition is -16.1%.

Consider `COc1ccc(NC(=O)Cn2c(SCc3ccc(C)cc3)nc3cccnc32)cc1OC`, for which the inhibition was -1.79%.

As to `COc1ccc(-c2c(C#N)c(SCC(=O)Nc3ccccc3C)nc(C)c2C(=O)Nc2ccc(Cl)cc2)cc1`, the inhibition is -6.72%.

As for `CN(c1ccccc1)S(=O)(=O)c1ccc(NC(=O)c2nc(S(C)(=O)=O)ncc2Cl)cc1`, the inhibition was 25.9%.

Regarding `CCN1CCN(CCNC(=O)c2ccc3c(c2)N(Cc2ccc(F)cc2)C(=O)c2ccccc2S3=O)CC1` (configuration not stated), the inhibition is active: 55%.

Regarding `COC(=O)c1c(NC(=O)CCCOc2cccc(C)c2)sc2c1CCC2`, the inhibition is -1.66%.

Take `O=C(CSc1nc(C2CCCCC2)nc2ccccc12)NCc1ccco1`: the inhibition was active: 66.7%.

On to `Cc1cc(C)n(-c2nnc(Nc3ccc(C)c(C)c3)c3ccccc23)n1`, for which the inhibition was 2.79%.

As to `CCOC(=O)c1cc(S(=O)(=O)Nc2cc(OC)ccc2OC)[nH]n1`, the inhibition was -5.79%.

As to `Cc1ccc(C(=O)NCC(c2ccc3c(c2)OCO3)N2CCOCC2)cc1C` (configuration not stated), the inhibition stood at 26.6%.

For `COc1ccc(CNc2nc(-c3ccco3)nn2S(=O)(=O)c2ccc(Cl)cc2)cc1OC`, the inhibition is -2.86%.

With `COc1ccc(Cl)cc1NC(=O)c1cc2c(=O)n3ccccc3nc2s1`, the inhibition was -19.2%.
